{"sequences": {"note": "Protein sequences, listed by entry. Tags and fused reporters are not part of them. Residues count along the entry.", "UniProt P53675": "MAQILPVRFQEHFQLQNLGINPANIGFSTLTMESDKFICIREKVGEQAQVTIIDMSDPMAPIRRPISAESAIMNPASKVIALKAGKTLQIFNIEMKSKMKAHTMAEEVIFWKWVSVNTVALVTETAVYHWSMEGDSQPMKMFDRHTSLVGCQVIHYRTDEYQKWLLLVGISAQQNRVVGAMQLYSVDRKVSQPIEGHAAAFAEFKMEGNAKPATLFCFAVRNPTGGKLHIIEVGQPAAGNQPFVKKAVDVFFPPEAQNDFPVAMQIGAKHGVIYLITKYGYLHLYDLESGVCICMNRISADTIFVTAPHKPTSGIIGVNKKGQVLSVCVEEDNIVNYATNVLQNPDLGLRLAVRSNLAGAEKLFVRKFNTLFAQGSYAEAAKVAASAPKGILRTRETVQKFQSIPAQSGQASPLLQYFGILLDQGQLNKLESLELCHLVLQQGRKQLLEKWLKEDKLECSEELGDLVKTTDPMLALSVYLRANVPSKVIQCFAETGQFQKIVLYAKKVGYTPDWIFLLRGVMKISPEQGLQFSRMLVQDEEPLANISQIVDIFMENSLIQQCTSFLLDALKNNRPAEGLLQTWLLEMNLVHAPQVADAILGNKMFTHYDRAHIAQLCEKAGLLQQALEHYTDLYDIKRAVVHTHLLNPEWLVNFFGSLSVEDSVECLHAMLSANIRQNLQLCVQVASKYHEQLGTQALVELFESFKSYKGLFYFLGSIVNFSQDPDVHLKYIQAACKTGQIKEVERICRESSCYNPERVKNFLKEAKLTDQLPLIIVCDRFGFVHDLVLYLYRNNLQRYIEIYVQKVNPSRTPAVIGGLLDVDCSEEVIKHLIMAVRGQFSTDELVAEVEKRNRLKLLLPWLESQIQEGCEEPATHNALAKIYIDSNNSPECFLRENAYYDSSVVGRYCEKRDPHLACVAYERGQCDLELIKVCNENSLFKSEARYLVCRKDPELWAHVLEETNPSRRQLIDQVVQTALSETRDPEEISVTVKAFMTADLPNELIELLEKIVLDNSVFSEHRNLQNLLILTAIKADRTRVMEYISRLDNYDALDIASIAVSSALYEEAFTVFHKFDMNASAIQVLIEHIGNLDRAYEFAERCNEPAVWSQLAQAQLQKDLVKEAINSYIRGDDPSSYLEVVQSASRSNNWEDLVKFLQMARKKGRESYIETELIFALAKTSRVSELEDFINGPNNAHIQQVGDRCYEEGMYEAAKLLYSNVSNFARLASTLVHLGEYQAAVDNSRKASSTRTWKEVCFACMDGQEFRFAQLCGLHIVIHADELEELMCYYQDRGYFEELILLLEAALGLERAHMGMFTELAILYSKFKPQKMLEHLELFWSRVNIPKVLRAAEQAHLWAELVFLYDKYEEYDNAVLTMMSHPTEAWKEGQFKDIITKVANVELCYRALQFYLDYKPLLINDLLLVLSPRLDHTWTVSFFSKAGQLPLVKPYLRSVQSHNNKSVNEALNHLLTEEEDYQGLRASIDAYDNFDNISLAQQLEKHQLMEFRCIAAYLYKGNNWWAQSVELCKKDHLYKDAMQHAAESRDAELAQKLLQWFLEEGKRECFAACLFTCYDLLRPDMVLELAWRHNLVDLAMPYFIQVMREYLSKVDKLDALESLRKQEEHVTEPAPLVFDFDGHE", "UniProt Q00610": "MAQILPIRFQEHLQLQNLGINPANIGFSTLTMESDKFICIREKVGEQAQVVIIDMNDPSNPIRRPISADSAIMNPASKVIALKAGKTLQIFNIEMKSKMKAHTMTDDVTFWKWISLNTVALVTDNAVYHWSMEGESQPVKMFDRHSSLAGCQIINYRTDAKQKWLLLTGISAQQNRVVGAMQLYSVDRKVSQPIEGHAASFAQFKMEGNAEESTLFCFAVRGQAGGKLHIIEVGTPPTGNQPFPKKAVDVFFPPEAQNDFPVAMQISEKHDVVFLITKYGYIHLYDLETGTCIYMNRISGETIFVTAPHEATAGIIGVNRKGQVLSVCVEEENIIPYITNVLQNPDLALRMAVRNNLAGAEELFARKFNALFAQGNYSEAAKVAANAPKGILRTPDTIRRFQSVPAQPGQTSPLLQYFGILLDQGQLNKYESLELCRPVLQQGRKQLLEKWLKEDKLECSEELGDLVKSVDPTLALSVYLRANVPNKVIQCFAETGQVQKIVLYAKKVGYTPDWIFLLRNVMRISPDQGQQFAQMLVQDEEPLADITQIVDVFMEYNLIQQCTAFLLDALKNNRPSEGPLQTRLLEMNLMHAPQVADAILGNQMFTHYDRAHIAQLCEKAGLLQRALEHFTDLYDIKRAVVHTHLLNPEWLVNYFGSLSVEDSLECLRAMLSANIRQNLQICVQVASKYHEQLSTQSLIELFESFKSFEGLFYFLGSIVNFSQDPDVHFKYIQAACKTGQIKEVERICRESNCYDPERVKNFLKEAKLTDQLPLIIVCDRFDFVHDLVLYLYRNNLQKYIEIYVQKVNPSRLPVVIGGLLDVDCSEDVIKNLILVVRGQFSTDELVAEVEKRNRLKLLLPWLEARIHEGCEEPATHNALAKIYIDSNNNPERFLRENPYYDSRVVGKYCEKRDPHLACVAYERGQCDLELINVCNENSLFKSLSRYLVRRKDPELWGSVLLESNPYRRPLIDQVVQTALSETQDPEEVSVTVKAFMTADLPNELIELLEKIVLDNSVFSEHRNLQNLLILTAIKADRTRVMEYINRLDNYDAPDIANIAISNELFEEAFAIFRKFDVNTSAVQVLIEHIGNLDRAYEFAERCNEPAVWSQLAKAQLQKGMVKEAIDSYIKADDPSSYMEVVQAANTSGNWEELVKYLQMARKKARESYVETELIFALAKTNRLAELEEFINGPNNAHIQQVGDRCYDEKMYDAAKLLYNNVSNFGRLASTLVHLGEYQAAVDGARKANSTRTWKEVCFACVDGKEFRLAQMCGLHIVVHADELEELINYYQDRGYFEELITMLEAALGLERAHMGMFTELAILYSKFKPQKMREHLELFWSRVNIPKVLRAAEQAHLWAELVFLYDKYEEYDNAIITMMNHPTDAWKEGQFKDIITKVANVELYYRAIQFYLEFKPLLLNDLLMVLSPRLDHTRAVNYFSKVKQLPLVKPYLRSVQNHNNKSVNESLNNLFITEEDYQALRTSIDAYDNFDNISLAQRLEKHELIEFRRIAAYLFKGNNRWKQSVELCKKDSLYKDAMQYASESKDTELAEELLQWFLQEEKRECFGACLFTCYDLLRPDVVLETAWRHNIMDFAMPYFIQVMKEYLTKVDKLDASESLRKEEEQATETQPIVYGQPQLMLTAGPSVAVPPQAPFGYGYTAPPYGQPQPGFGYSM", "UniProt Q99523, residues 78-831": "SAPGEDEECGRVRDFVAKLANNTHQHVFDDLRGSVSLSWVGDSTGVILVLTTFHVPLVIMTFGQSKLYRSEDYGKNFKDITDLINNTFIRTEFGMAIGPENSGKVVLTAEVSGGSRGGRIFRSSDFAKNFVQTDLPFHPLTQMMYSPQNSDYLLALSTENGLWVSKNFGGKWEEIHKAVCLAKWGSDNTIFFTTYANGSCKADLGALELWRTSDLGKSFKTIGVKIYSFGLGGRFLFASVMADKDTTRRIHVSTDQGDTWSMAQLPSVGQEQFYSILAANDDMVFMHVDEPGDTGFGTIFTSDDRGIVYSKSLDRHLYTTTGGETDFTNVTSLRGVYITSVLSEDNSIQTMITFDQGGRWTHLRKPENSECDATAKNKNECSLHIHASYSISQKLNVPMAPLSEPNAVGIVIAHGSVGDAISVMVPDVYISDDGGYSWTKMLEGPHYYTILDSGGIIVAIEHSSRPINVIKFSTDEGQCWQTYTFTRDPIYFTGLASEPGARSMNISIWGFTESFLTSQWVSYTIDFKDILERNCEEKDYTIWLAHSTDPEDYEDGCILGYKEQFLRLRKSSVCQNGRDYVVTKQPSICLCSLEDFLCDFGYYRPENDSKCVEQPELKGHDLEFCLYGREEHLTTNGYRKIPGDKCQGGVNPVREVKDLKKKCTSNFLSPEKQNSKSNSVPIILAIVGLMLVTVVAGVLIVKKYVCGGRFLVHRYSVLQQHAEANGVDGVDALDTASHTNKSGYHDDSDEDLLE"}, "source": "paper PMC7039200", "key": {"[1]": {"molecular_target": "CHC22 clathrin (clathrin heavy chain isoform CHC22) (human (endogenous in HeLa-GLUT4 cells and hSkMC-AB1190 myotubes)) (UniProt P53675)", "assay": "co-IP; endogenous CHC22 (Proteintech antibody) or CHC17 (X22 antibody) immunoprecipitated from precleared postnuclear supernatant of HeLa-GLUT4 cells, overnight 4°C, protein G sepharose; lysis buffer 150 mM NaCl, 20 mM Hepes, 1 mM EDTA, 1 mM EGTA, 10% glycerol, 0.25% NP-40; immunoblot"}, "[2]": {"molecular_target": "CHC17 clathrin (canonical clathrin heavy chain isoform CHC17) (human (endogenous in HeLa-GLUT4 cells and hSkMC-AB1190 myotubes)) (UniProt Q00610)", "assay": "co-IP; endogenous CHC22 (Proteintech antibody) or CHC17 (X22 antibody) immunoprecipitated from precleared postnuclear supernatant of HeLa-GLUT4 cells, overnight 4°C, protein G sepharose; lysis buffer 150 mM NaCl, 20 mM Hepes, 1 mM EDTA, 1 mM EGTA, 10% glycerol, 0.25% NP-40; immunoblot"}, "[3]": {"molecular_target": "CHC22 clathrin (clathrin heavy chain isoform CHC22) (human (endogenous in HeLa-GLUT4 cells and hSkMC-AB1190 myotubes)) (UniProt P53675)", "assay": "co-IP; endogenous CHC22 (Proteintech antibody) or CHC17 (X22 antibody) immunoprecipitated from precleared postnuclear supernatant of human skeletal muscle myotubes (hSkMC-AB1190), overnight 4°C, protein G sepharose; lysis buffer 150 mM NaCl, 20 mM Hepes, 1 mM EDTA, 1 mM EGTA, 10% glycerol, 0.25% NP-40; immunoblot"}, "[4]": {"molecular_target": "CHC17 clathrin (canonical clathrin heavy chain isoform CHC17) (human (endogenous in HeLa-GLUT4 cells and hSkMC-AB1190 myotubes)) (UniProt Q00610)", "assay": "co-IP; endogenous CHC22 (Proteintech antibody) or CHC17 (X22 antibody) immunoprecipitated from precleared postnuclear supernatant of human skeletal muscle myotubes (hSkMC-AB1190), overnight 4°C, protein G sepharose; lysis buffer 150 mM NaCl, 20 mM Hepes, 1 mM EDTA, 1 mM EGTA, 10% glycerol, 0.25% NP-40; immunoblot"}}, "note": "These are yes or no findings as the source states them, for the method shown. In cells and extracts the contact can be indirect. Some results given as binding are weak or reduced against the parent protein; the word gives no strength. For part of these data: Where a sequence is shown, tags or fusion partners need not be part of it.", "data": [{"molecule": "sortilin (from UniProt Q99523 78-831)", "values": [{"measurement": "binding", "setting": "[1]", "result": "binds"}, {"measurement": "binding", "setting": "[2]", "result": "no binding"}, {"measurement": "binding", "setting": "[3]", "result": "binds"}, {"measurement": "binding", "setting": "[4]", "result": "no binding"}]}, {"molecule": "p115 (ERGIC vesicle tether p115) (protein, UniProt O60763 1-962) MNFLRGVMGGQSAGPQHTEAETIQKLCDRVASSTLLDDRRNAVRALKSLSKKYRLEVGIQAMEHLIHVLQTDRSDSEIIGYALDTLYNIISNEEEEEVEENSTRQSEDLGSQFTEIFIKQQENVTLLLSLLEEFDFHVRWPGVKLLTSLLKQLGPQVQQIILVSPMGVSRLMDLLADSREVIRNDGVLLLQALTRSNGAIQKIVAFENAFERLLDIISEEGNSDGGIVVEDCLILLQNLLKNNNSNQNFFKEGSYIQRMKPWFEVGDENSGWSAQKVTNLHLMLQLVRVLVSPTNPPGATSSCQKAMFQCGLLQQLCTILMATGVPADILTETINTVSEVIRGCQVNQDYFASVNAPSNPPRPAIVVLLMSMVNERQPFVLRCAVLYCFQCFLYKNQKGQGEIVSTLLPSTIDATGNSVSAGQLLCGGLFSTDSLSNWCAAVALAHALQENATQKEQLLRVQLATSIGNPPVSLLQQCTNILSQGSKIQTRVGLLMLLCTWLSNCPIAVTHFLHNSANVPFLTGQIAENLGEEEQLVQGLCALLLGISIYFNDNSLESYMKEKLKQLIEKRIGKENFIEKLGFISKHELYSRASQKPQPNFPSPEYMIFDHEFTKLVKELEGVITKAIYKSSEEDKKEEEVKKTLEQHDNIVTHYKNMIREQDLQLEELRQQVSTLKCQNEQLQTAVTQQVSQIQQHKDQYNLLKIQLGKDNQHQGSYSEGAQMNGIQPEEIGRLREEIEELKRNQELLQSQLTEKDSMIENMKSSQTSGTNEQSSAIVSARDSEQVAELKQELATLKSQLNSQSVEITKLQTEKQELLQKTEAFAKSVEVQGETETIIATKTTDVEGRLSALLQETKELKNEIKALSEERTAIKEQLDSSNSTIAILQTEKDKLELEITDSKKEQDDLLVLLADQDQKILSLKNKLKDLGHPVEEEDELESGDQEDEDDESEDPGKDLDHI", "values": [{"measurement": "binding", "setting": "[1]", "result": "binds"}, {"measurement": "binding", "setting": "[2]", "result": "no binding"}, {"measurement": "binding", "setting": "[3]", "result": "binds"}, {"measurement": "binding", "setting": "[4]", "result": "no binding"}]}, {"molecule": "HA-GLUT4-GFP (human GLUT4 with an HA tag in the first exofacial loop and a GFP tag at the intracellular carboxyl terminus) (protein, UniProt P14672 1-509) MPSGFQQIGSEDGEPPQQRVTGTLVLAVFSAVLGSLQFGYNIGVINAPQKVIEQSYNETWLGRQGPEGPSSIPPGTLTTLWALSVAIFSVGGMISSFLIGIISQWLGRKRAMLVNNVLAVLGGSLMGLANAAASYEMLILGRFLIGAYSGLTSGLVPMYVGEIAPTHLRGALGTLNQLAIVIGILIAQVLGLESLLGTASLWPLLLGLTVLPALLQLVLLPFCPESPRYLYIIQNLEGPARKSLKRLTGWADVSGVLAELKDEKRKLERERPLSLLQLLGSRTHRQPLIIAVVLQLSQQLSGINAVFYYSTSIFETAGVGQPAYATIGAGVVNTVFTLVSVLLVERAGRRTLHLLGLAGMCGCAILMTVALLLLERVPAMSYVSIVAIFGFVAFFEIGPGPIPWFIVAELFSQGPRPAAMAVAGFSNWTSNFIIGMGFQYVAEAMGPYVFLLFAVLLLGFFIFTFLRVPETRGRTFDQISAAFHRTPSLLEQEVKPSTELEYLGPDEND", "values": [{"measurement": "binding", "setting": "[1]", "result": "binds"}, {"measurement": "binding", "setting": "[2]", "result": "binds"}]}, {"molecule": "GLUT4 (muscle cell GLUT4 of human skeletal muscle myotubes) (protein, UniProt P14672 1-509) MPSGFQQIGSEDGEPPQQRVTGTLVLAVFSAVLGSLQFGYNIGVINAPQKVIEQSYNETWLGRQGPEGPSSIPPGTLTTLWALSVAIFSVGGMISSFLIGIISQWLGRKRAMLVNNVLAVLGGSLMGLANAAASYEMLILGRFLIGAYSGLTSGLVPMYVGEIAPTHLRGALGTLNQLAIVIGILIAQVLGLESLLGTASLWPLLLGLTVLPALLQLVLLPFCPESPRYLYIIQNLEGPARKSLKRLTGWADVSGVLAELKDEKRKLERERPLSLLQLLGSRTHRQPLIIAVVLQLSQQLSGINAVFYYSTSIFETAGVGQPAYATIGAGVVNTVFTLVSVLLVERAGRRTLHLLGLAGMCGCAILMTVALLLLERVPAMSYVSIVAIFGFVAFFEIGPGPIPWFIVAELFSQGPRPAAMAVAGFSNWTSNFIIGMGFQYVAEAMGPYVFLLFAVLLLGFFIFTFLRVPETRGRTFDQISAAFHRTPSLLEQEVKPSTELEYLGPDEND", "values": [{"measurement": "binding", "setting": "[3]", "result": "binds"}, {"measurement": "binding", "setting": "[4]", "result": "binds"}]}]}
